Measurements: ChEMBL document CHEMBL1157539, “Thousands of chemical starting points for antimalarial lead identification” (Nature, 2010)
In all, about 13,000 compounds were measured (“IFI”: median about 4, highest 2% from about 17 on). The list shows a part of the results.

Assay: GSK_TCMDC: Inhibition Frequency Index (IFI). The number of non-kinase HTS assays where a compound showed > 50 % inhibition, expressed as a percentage of the number of such assays in which the compound was tested (-0 is zero)
Type: functional
Compound `CCc1c(CCNCCCCCCNCCc2ccc(OC)c(OC)c2CC)ccc(OC)c1OC` has an IFI of 6.47%. `C=CCNC(CCCCC)c1ccc(OCCOc2ccc(C(CCCCC)NCC=C)cc2)cc1` (stereo unspecified) gave an IFI of 18.3%. Compound `O=C(NC1CCCCN(Cc2ccc3c(c2)OCCO3)C1)c1cc(-c2ccccc2F)cs1` (stereo unspecified) has an IFI of 1.96%. With `O=C1C(c2ccccc2)=C(Nc2ccc([N+](=O)[O-])cc2)c2ccccc21` the IFI was 3.03%. Work on `CC[C@H](C)CNC(=O)c1cncc(-c2cccc(CN(C)C3CCN(C)CC3)c2)c1` yielded an IFI of -0%. `CCN(CC)CCCNc1nccc(N2CCc3ncnc(Nc4ccc(OCc5cccc(F)c5)c(Cl)c4)c3C2)n1` gave an IFI of 16.1%. `O=S(=O)(/C=C/c1ccccc1)N(Cc1ccc(-c2ccc(CNCCOc3ccccc3)cc2)cc1)CC1CCCCN1` (stereo unspecified) showed an IFI of 12.4%. Work on `COc1cc2/c(=N/c3ccc(Br)cc3F)nc[nH]c2cc1OCC1CCN(C)CC1` yielded an IFI of 7.25%. For `O=C(Nc1cccc(C(F)(F)F)c1)N1CCOC(CCN2CCC3(CCc4ccccc43)CC2)(c2ccc(Cl)c(Cl)c2)C1` (stereo unspecified), the IFI was 6.71%. For `COc1cc(Nc2ccnc3ccc(C(C)(C)C)cc23)cc(OC)c1OC`, the IFI was 0.75%. `COc1cccc(-c2ccc3ccnc(N)c3c2)c1` showed an IFI of 7.87%. Compound `Nc1ccc2[nH]cc(C3CCN(CC4CCC(NC(=O)/C=C/c5ccc(Cl)c(Cl)c5)CC4)CC3)c2n1` (stereo unspecified) has an IFI of 5.56%. For `CCOc1ccc(C(C)NC(=O)c2ccc(OC)c(Br)c2)cc1OCC` (stereo unspecified), the IFI was 2.08%. Compound `COc1ccc(Nc2nccc(NCCNC(=O)Nc3cc(C)ccc3C)n2)cc1` has an IFI of 4.62%. `COc1cc(C)cc(CN2CCC(Cc3ccccc3)CC2)c1O` gave an IFI of 0.84%. With `N=C(N)Nc1nc(CCCCCCCCc2csc(NC(=N)N)n2)cs1` the IFI was 10.1%. For `O=C(N1CCN(c2ccnc3cc4c(cc23)N(Cc2ccccc2)CC4)CC1)C(F)(F)F`, the IFI was 5.67%. For `COc1cccc2c(Nc3ccccc3C)nc(Nc3ccccc3C)nc12`, the IFI was 5.97%. Work on `CCN(CC)CCCC(C)Nc1c2ccccc2nc2ccccc12` (stereo unspecified) yielded an IFI of 0%. Work on `COc1ccc(CC2(c3ccc(F)cc3)N=C(N)N(CCCc3ccccc3)C2=O)cc1` (stereo unspecified) yielded an IFI of 16.7%. Compound `CCOc1cc(C(=O)NC2CC(C)(C)NC(C)(C)C2)ccc1-c1cc2cc(Cl)c(Cl)cc2[nH]1` has an IFI of 6.94%. Compound `O=C(Nc1ccc(Br)cc1)c1cc(Br)ccc1NS(=O)(=O)c1cc(C(F)(F)F)cc(C(F)(F)F)c1` has an IFI of 19.9%. With `CN(Cc1cccc(F)c1)C1CCCN(c2cc(NC(=O)c3ccccc3)ccn2)C1` (stereo unspecified) the IFI was -0%. For `Cc1ccc(C(=O)N2CCN(Cc3nccs3)CC2)cc1`, the IFI was 0%. Work on `Clc1ccc(Nc2nc(Nc3ccc(Cl)c(Cl)c3)nc(Sc3nc4ccccc4[nH]3)n2)cc1Cl` yielded an IFI of 0.72%. In the case of `O=C(Nc1ccc(-c2nc3ccccc3[nH]2)cc1)c1cccc([N+](=O)[O-])c1`, the IFI is reported as 1.46%.
